From PubChem BioAssay AID485294 (National Center for Advancing Translational Sciences (NCATS), 2010)
Among all 370,000 compounds or so, about 150 (0.041%) were called active. Inconclusive means that the source gave no clear call. Such entries were picked first, then a sample of the others. Calls follow the shape of the dose curve; as a rule, active = well fitted inhibition curve with a large enough effect; inconclusive = small, poorly fitted or top-dose-only effect; inactive = flat fitted curve, though single readings scatter. No potency is given beside an inconclusive call; the fits are too rough.

target: Beta-lactamase (Escherichia coli (strain K12)) (UniProt P00811); assay: qHTS Inhibitors of AmpC Beta-Lactamase (assay with detergent); conditions: AmpC hydrolysis of nitrocefin, absorbance 480 nm, 0.01% Triton; activity change, negative = inhibition: at 114 µM (top of the series); also: nearly all actives have a fitted effect of over 25% in size;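 as to activity change, negative = inhibition: 0% = no-compound wells and -100% = no-enzyme wells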
In short: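 20 mM phosphate pH 7.0 + 0.01% (detergent screen) or 0.0001% Triton X-100; 5.3 nM AmpC reagent; cpd preinc 15 min RT; nitrocefin (800 uM stock) to start; A480 q20 s × 4 min; Activity was normalised to no-enzyme and no-compound control wells.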
Potency is read from the fitted curve at half-maximal effect; tags tell the direction and shape of the fitted curve.

UniProt P00811, sequence (P00811 whole entry, looked up): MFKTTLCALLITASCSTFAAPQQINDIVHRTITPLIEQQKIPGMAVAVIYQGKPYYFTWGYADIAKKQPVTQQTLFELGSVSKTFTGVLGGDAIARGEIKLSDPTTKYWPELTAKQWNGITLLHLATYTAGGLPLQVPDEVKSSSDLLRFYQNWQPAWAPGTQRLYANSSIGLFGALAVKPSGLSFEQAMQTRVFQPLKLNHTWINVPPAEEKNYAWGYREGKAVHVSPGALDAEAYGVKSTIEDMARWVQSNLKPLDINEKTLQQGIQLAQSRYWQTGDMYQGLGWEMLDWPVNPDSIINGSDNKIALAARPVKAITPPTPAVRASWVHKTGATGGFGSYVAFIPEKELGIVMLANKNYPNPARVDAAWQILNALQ

SMILES | Potency | activity change, negative = inhibition
COC(=O)c1cc(S(=O)(=O)Nc2cccc(C)c2C)cn1C | inconclusive [inhibitor, partial curve, poor fit] | 
O=C(Nc1cccc(C(=O)Nc2ccc(Cl)cn2)c1)c1ccccc1 |  | inactive: -0.843%
Cc1c(NC(=O)C(C)C)cccc1-c1nc2ncccc2o1 |  | inactive: -0.229%
COc1ccc(-c2cc(C(=O)N3CCN(C(c4ccccc4)c4ccccc4)CC3)no2)cc1OC |  | inactive: 0.0585%
Cc1cc(C)c(S(=O)(=O)NCc2ccc3c(c2)CCN3C(=O)c2ccccc2)c(C)c1 |  | inactive: 3.87%
COc1ccccc1NC(=O)CSc1nnc(C)n1CC1CCCO1 (stereo unspecified) | inconclusive [inhibitor, full curve, poor fit] | 
Cc1nc(C)n(C(C)CC(=O)O)n1 (stereo unspecified) | inconclusive [inhibitor, partial curve, poor fit] | 
CCCC(C(=O)NC1CCCC1)N(Cc1ccc2c(c1)OCO2)C(=O)c1snc(C(N)=O)c1N (stereo unspecified) | inconclusive [inhibitor, single point] | 
Cc1cc2cc(CN(Cc3cccs3)Cc3nnnn3CC3CCCO3)c(=O)[nH]c2cc1C (stereo unspecified) | inconclusive [inhibitor, full curve, poor fit] | 
COc1cccc(-c2cc(C(=O)NCC3CCCO3)on2)c1 (stereo unspecified) |  | inactive: -0.306%
CCOC(=O)CC(=O)CSc1ncc(C(=O)OCC)c(N)n1 | inconclusive [inhibitor, partial curve, poor fit] | 
Brc1ccccc1OCCOc1cccc2cccnc12 | inconclusive [inhibitor, single point] | 
CCN(CC)c1ccc2cc(-c3nnc(Nc4ccc(C)cc4)s3)c(=O)oc2c1 |  | inactive: 9.68%
CC(Oc1ccc(Br)cc1)C(=O)NCC(c1ccco1)N1CCCCC1 (stereo unspecified) | inconclusive [inhibitor, partial curve, poor fit] | 
c1ccc(CCc2ccccc2-c2nc(-c3ccccn3)no2)cc1 | inconclusive [inhibitor, full curve, poor fit] | 
Cc1cccn2c(=O)c(C(=O)N3CCN(c4ccccc4F)CC3)cnc12 |  | inactive: 3.81%
CCOc1cc(N2CCOCC2)c(OCC)cc1NC(=O)c1nc2nc(C)cc(C)n2n1 | inconclusive [inhibitor, partial curve, poor fit] | 
Cc1ccc2c(=O)c(C(=O)c3ccc(F)cc3)cn(CC(=O)NCc3ccco3)c2n1 | inconclusive [inhibitor, partial curve] | 
OC(CN1C2=NCCN2c2ccccc21)c1ccc2c(c1)OCO2 (stereo unspecified) | inconclusive [inhibitor, partial curve, poor fit] | 
N#C/C(=C/c1cc(Br)cs1)C(=O)NCC1CCCO1 (stereo unspecified) |  | inactive: 2.27%
Cc1ccc(-n2c(O)c(C=Nc3ccccc3-c3n[nH]c(=S)[nH]c3=O)c3ccccc3c2=O)cc1C | inconclusive [inhibitor, single point] | 
Cc1nn(-c2ccccc2)c2sc(C(=O)Nc3ccc(Cl)cc3Cl)cc12 |  | inactive: -0.0669%
COc1ccc(Cc2c3cc(OC)c(OC)cc3cc[n+]2C)cc1OC |  | inactive: -5.62%
O=C(NCC(c1ccco1)N1CCc2ccccc21)C(=O)Nc1ccccc1 (stereo unspecified) | inconclusive [inhibitor, full curve] | 

SMILES | Potency | activity change, negative = inhibition
CC(=O)c1cnc(Nc2nc(C)c3cccc(C)c3n2)nc1C | inconclusive [inhibitor, partial curve, poor fit] | 
C=CCN1C(=O)CSc2ccc(C(=O)NC(C)c3ccccc3)cc21 (stereo unspecified) | inconclusive [inhibitor, full curve, poor fit] | 
CC/C(=N/Nc1cccc(C)c1)c1cnnc(SC)n1 | inconclusive [inhibitor, full curve, poor fit] | 
Cc1ccc(S(=O)(=O)N(C)c2ccc(OC(=O)c3ccc(N4CCCC4=O)cc3)cc2)cc1 | inconclusive [inhibitor, full curve] | 
COc1ccccc1-n1cnc(N)c1C(C)=O | inconclusive [inhibitor, partial curve] | 
CC(C)C(=O)N1CCc2cc(-c3csc(N)n3)ccc21 |  | inactive: 0.818%
O=C1NC(CCc2ccccc2)C(=O)N1Cc1cccc2ccccc12 (stereo unspecified) | inconclusive [inhibitor, partial curve, poor fit] | 
S=C(NCCc1ccccc1)NCCN1CCOCC1 | inconclusive [inhibitor, full curve] | 
CCOC(=O)C(=O)/C(C#N)=C/Nc1ccccc1 |  | inactive: -11.7%
COc1ccc2nc(NC(=O)CN3CCN(C)CC3)sc2c1 | inconclusive [inhibitor, partial curve, poor fit] | 
Cn1cc(CNC(=O)c2cc(-c3ccccc3)nc3ccc(Br)cc23)cn1 |  | inactive: -10.3%
COc1ccc(N(CC(=O)NCc2cccs2)S(=O)(=O)c2c(C)nn(C)c2C)cc1 | inconclusive [inhibitor, partial curve] | 
CCC(=O)Nc1ccc(S(=O)(=O)N2CCCCC2)cc1OC | inconclusive [inhibitor, single point] | 
Cc1ccccc1NC(=O)C1CCC(C)(C(=O)O)C1(C)C (stereo unspecified) | inconclusive [inhibitor, full curve, poor fit] | 
Cc1nn(C)c(C)c1S(=O)(=O)N(CC(=O)N1CCc2ccccc2C1)c1ccc(C(C)C)cc1 | inconclusive [inhibitor, full curve, poor fit] | 
O=C(c1ccncc1)N1CCN(C(=O)c2cccs2)CC1 | inconclusive [inhibitor, full curve, poor fit] | 
CCCCNC(=O)c1ccc(SCC(=O)N(CC)CC)c([N+](=O)[O-])c1 |  | inactive: 1.3%
CS(=O)(=O)N1CCN(C(=S)NCc2ccc(F)cc2)CC1 | inconclusive [inhibitor, single point] | 
Cc1cccc(C)c1NC(=O)C(c1ccc([N+](=O)[O-])cc1)N(C)C(=O)c1ccccn1 (stereo unspecified) | inconclusive [inhibitor, full curve, poor fit] | 
C/C(=N\N1CCCCCC1)c1c(O)n(C)c(=O)n(C)c1=O | inconclusive [inhibitor, partial curve] | 
O=S(=O)(O)CCN1CCOCC1 | inconclusive [inhibitor, single point] | 
COCCC(C(=O)Oc1c(C(C)(C)C)cc(C)cc1C(C)(C)C)c1ccccc1 (stereo unspecified) |  | inactive: 6.58%
CC(C)(C)C(=O)Nc1ccc(C(=O)Nc2cc(NC(=O)c3ccc(NC(=O)C(C)(C)C)cc3)cc(C(=O)O)c2)cc1 |  | inactive: -16.4%
Cc1nc(=O)c(-c2ccccc2)c(C)n1Cc1ccccc1 | inconclusive [inhibitor, partial curve, poor fit] | 

SMILES | Potency | activity change, negative = inhibition
O=C(Nc1ccc(F)cc1)N1CCN2C(=O)c3ccccc3C12c1ccccc1 (stereo unspecified) | inconclusive [inhibitor, full curve, poor fit] | 
O=C(c1nn2c(C(F)(F)F)cc(-c3ccccc3)nc2c1Cl)N1CCOCC1 | inconclusive [inhibitor, full curve] | 
Cc1ccc(-c2nc(CS(=O)CC(=O)NC3CCCC3)c(C)o2)cc1 (stereo unspecified) | inconclusive [inhibitor, full curve, poor fit] | 
O=C(CCOc1ccccc1)Nc1ccc(Br)cc1 |  | inactive: -2.53%
Nc1nc(O)c(CC(=O)O)s1 | inconclusive [inhibitor, single point] | 
CCN1CCN(C(c2cc3cc4c(cc3[nH]c2=O)OCO4)c2nnnn2C(C)(C)CC)CC1 (stereo unspecified) |  | inactive: -1.18%
COc1cc(/C=N/NC(=O)Nc2ccccc2)ccc1OC(C)=O | inconclusive [inhibitor, partial curve] | 
Cc1ccc2nc(N(CCN(C)C)C(=O)c3ccc4ccccc4c3)sc2c1 | inconclusive [inhibitor, partial curve] | 
Cc1ccc(/C=C2/SC(=O)NC2=S)o1 |  | inactive: 3.3%
COc1ccc(F)cc1C(=O)C1CCCN(Cc2c[nH]c3ccccc23)C1 (stereo unspecified) |  | inactive: -0.328%
Cc1ccc(Nc2nc(N)nc(CSC(=S)N3CCOCC3)n2)c(C)c1 |  | inactive: -6.27%
CC(=O)N(C)c1ccc(NS(=O)(=O)Cc2ccccc2)cc1 | inconclusive [inhibitor, single point] | 
CCC(C)NS(=O)(=O)c1ccc(NC(=O)Cc2ccc(OC)cc2)cc1 (stereo unspecified) | inconclusive [inhibitor, full curve, poor fit] | 
O=C(CC(Nc1ccc(F)cc1)c1ccccc1)c1ccccc1 (stereo unspecified) |  | inactive: -9.89%
CCCC(=O)NC(C)c1nc2ccccc2n1C (stereo unspecified) | inconclusive [inhibitor, partial curve] | 
COC(=O)CSc1nc(C2CC2)nc2ccccc12 | inconclusive [inhibitor, partial curve] | 
COc1cc(NS(=O)(=O)c2ccc(C)cc2C)cc(OC)c1OC |  | inactive: -3.6%
COc1ccc(CN(C)C(=O)C(Cc2ccccc2)NC(=O)c2ccccc2)cc1F (stereo unspecified) |  | inactive: -11.2%
Nc1nc(SCC(=O)N2CCCc3ccccc32)n(-c2ccccc2)n1 | inconclusive [inhibitor, full curve, poor fit] | 
OC(c1ccccc1)(c1ccc(F)cc1)C(c1ccccc1)N1CCOCC1 (stereo unspecified) |  | inactive: -4.42%
O=C(CSCc1c(Cl)cccc1Cl)Nc1ccc2c(c1)OCCO2 |  | inactive: -10.6%
C#CC1CCCCC1NC(=O)Nc1cnccc1C(F)(F)F (stereo unspecified) |  | inactive: 0.354%
CCOC(=O)CNC(=O)c1ccc(OCC(F)(F)F)cc1 | inconclusive [inhibitor, partial curve, poor fit] | 
